Data published in PubChem BioAssay AID488969 (Vanderbilt High Throughput Screening Facility, 2010).
Over roughly 110,000 compounds, “z-score” has its median near -0.1; the highest 2% begin near 2. Some of the results follow. Activity calls are given as the source filed them.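 How the source made its calls: active means z-score in the third read window above 3 or below -3; inactive means the rest.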

Each molecule was assayed against Metabotropic glutamate receptor 8 (Rattus norvegicus) (UniProt P70579) (assay: mGluR8 Gi/Go-coupled signaling modulation – cell-based, rat, thallium flux, HTS, primary screen (AID 488969)). Conditions: HEK293 rat mGluR8, GIRK (G protein-gated inwardly rectifying potassium channel) thallium flux, FluoZin2; at 10 µM; stronger effect = higher value; submaximal glutamate (EC20) added with thallium.
Sequence of UniProt P70579 (P70579 whole entry, looked up): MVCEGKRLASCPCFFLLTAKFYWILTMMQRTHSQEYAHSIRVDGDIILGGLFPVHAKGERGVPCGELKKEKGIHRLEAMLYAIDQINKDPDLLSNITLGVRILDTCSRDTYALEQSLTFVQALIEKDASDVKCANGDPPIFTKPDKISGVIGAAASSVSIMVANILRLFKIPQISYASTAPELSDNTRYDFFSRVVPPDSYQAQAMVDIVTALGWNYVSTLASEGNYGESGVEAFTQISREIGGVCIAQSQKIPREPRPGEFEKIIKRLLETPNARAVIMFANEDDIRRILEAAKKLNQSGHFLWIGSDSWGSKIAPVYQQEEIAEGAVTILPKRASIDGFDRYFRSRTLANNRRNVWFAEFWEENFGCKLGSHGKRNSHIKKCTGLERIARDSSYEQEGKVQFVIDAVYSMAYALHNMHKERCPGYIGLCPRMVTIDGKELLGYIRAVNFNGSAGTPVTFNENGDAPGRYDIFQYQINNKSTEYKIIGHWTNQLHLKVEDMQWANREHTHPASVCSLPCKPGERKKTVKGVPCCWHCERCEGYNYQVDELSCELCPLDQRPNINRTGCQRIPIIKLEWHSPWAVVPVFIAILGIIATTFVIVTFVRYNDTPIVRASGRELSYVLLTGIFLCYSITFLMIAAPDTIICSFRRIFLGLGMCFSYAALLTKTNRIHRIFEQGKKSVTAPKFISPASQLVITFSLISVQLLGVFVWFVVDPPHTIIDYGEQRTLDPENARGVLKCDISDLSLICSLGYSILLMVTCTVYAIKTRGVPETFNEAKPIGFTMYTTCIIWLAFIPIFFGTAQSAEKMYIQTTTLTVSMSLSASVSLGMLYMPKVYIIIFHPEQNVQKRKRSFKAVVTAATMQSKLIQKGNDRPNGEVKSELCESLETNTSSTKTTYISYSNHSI

Row | Structure (SMILES) | z-score
1 | O=C(NC(=O)c1ccc(Cl)cc1)Nc1cc(N2CCCCC2)ncn1 | -0.336
2 | COc1ccc(CCNC(=O)CN(c2ccc(OC)c(OC)c2)S(C)(=O)=O)cc1 | 0.279
3 | COc1ccc(C2SCCN2C(=S)Nc2ccc(F)cc2)cc1 (stereo not drawn) | 0.313
4 | CC(C)c1ccc(NC(=S)NN(c2ccccc2)c2ccccc2)cc1 | -0.422
5 | COc1c(Cl)cnn(-c2ccc(C)cc2)c1=O | 0.0158
6 | Cc1cc(C)c(S(=O)(=O)c2ccccc2)c(OC(=O)c2c(F)cccc2Cl)n1 | -1.45
7 | CCCN1CCC(NC(=O)Nc2ccc(F)cc2F)CC1 | 2.81
8 | Cc1nc2ccccc2nc1OCc1cccc(Cl)c1 | -0.33
9 | CC1CCN(CC(C)OC(=O)c2ccc3c(c2)OCCO3)CC1 (stereo not drawn) | 0.278
10 | CCC(CC)C(=O)NCCc1cc2ccc(C)cc2[nH]c1=O | -0.142
11 | N/C(=N\OC(=O)Cc1ccc(Cl)cc1)c1ccccn1 | -0.151
12 | O=S(=O)(c1cccc(-c2nnco2)c1)N1CCCC1 | -0.192
13 | CCN(CC(=O)NCc1ccc(F)cc1)C(=O)COc1ccc2ccccc2c1 | -0.144
14 | C=C(C)c1cccc(C(C)(C)NC(=O)NCC2CCCO2)c1 (stereo not drawn) | -0.323
15 | C/C(CC(=O)NC(C)C)=N\NC(=O)COc1cc(C)c(Br)cc1Br | active: 6.24
16 | FC(F)(F)c1cc(Cl)c2nc(-c3ccccc3)cn2c1 | -0.159
17 | O=C(Nc1ccccc1-c1ccccc1)C12CC3CC(CC(C3)C1)C2 | -0.47
18 | CCOC(=O)c1sc(NC(=O)c2cccc(S(=O)(=O)N3CCN(C)CC3)c2)cc1C | 0.236
19 | COc1ccc(-n2c(SC)nc(O)cc2=O)cc1 | 0.379
20 | CCOC(=O)C(C)Oc1ccccc1C1NC(=O)NC(C)=C1C(=O)Nc1ccc(C)c(C)c1 (stereo not drawn) | 0.0731
21 | CCC(=O)Nc1ccccc1C(=O)OCC(=O)Nc1ccc(S(N)(=O)=O)cc1 | -2.45
22 | O=C(CSc1nc2ccccc2n1-c1ccccc1)Nc1ncc(Cl)cc1Cl | 0.463
23 | CC(C)CNc1oc(-c2ccco2)nc1C#N | -0.118

Row | Structure (SMILES) | z-score
24 | Cc1c(C(=O)N2CCN(c3ccccn3)CC2)oc2ccccc12 | -0.408
25 | O=C(CN1CCCC1)NC1C2CC3CC(C2)CC1C3 (stereo not drawn) | -0.0836
26 | CCOC(=O)C1=C(C)N(C)C(=O)NC1c1ccc(C)s1 (stereo not drawn) | -0.0391
27 | Cc1ccc(-n2c(Cl)c(Cl)nc(Cl)c2=O)cc1 | 0.316
28 | CN1C(=O)CS(=O)c2ccc(C(=O)NC3CC3)cc21 (stereo not drawn) | -0.059
29 | O=C(N/N=C/C1CC=CCC1)c1ccccc1O (stereo not drawn) | -0.0983
30 | NC(CC(=O)O)c1ccc(Br)cc1 (stereo not drawn) | -0.0217
31 | O=C(NC(=S)NCCSc1ccccc1)c1cccnc1 | -0.113
32 | O=C(CSc1cccc2cccnc12)NCc1ccco1 | -0.028
33 | Cc1ccccc1-n1c(SCC(=O)NCc2cccs2)nc2ccccc2c1=O | -0.762
34 | N#CCSc1nc2sc3c(c2c(=O)n1C1CCCCC1)CCCC3 | -0.811
35 | O=C(c1ccc(S(=O)(=O)Cc2cc(F)ccc2F)c([N+](=O)[O-])c1)N1CCCCC1 | -0.346
36 | CC(C)N(Cc1cc2ccccc2[nH]c1=O)C(=O)C(C)(C)C | -0.124
37 | O=C(Nc1ccc(N2CCCCC2)c(Cl)c1)c1ccc2c(c1)OCCO2 | -0.282
38 | CC(C)Cn1c(CN2CCCCC2C)nc2c1c(=O)n(C)c(=O)n2C (stereo not drawn) | -0.341
39 | Cc1ccc(N(CN2CCCC2=O)C(=O)c2ccc(C)c(C)c2)cc1 | -0.101
40 | CCCCCCCCOc1ccc(C2OC34CCCCC3C(C#N)(C#N)C2(C#N)C(=N)O4)cc1 (stereo not drawn) | -0.275
41 | Cc1nn(C)cc1/C=C1\CCC/C(=C\c2cn(C)nc2C)C1=O | -0.272
42 | O=C(Nc1ccc(S(=O)(=O)NCc2ccccc2)cc1)Nc1ccc2c(c1)OCO2 | -0.608
43 | CNS(=O)(=O)c1cccc(C(=O)OCC(=O)N2c3ccccc3CC2C)c1 (stereo not drawn) | -0.232
44 | CC1=NN(C(=O)Cc2ccccc2)C(O)(c2cccnc2)C1 (stereo not drawn) | -0.429
45 | C=CCn1c2ccccc2c2nnc(SCc3ccc4nonc4c3)nc21 | 0.0633
46 | CC1(C)NC(=O)N(CC(O)CN(Cc2ccccc2)Cc2ccccc2)C1=O (stereo not drawn) | 0.0884

Row | Structure (SMILES) | z-score
47 | Cn1c(CCCNC(=O)c2ccccc2)nc2ccccc21 | -0.174
48 | CCOC(=O)c1sc2nc(CN3CCN(c4cccc(C(F)(F)F)c4)CC3)[nH]c(=O)c2c1C | 0.255
49 | CCOC(=O)c1nn(-c2cccc(C)c2)cc1C(=O)c1ccccc1 | 0.0743
50 | CN(c1ccccc1)C1CCCCC1NS(=O)(=O)c1ccc(Cl)cc1 (stereo not drawn) | 0.158
51 | CCOc1cccc(NC(=O)C2CC(=O)N(C)C2)c1 (stereo not drawn) | -0.223
52 | Cc1ccc(NC(=O)CCc2ccc(S(=O)(=O)N3CCOCC3)cc2)c(C)c1 | -0.0346
53 | CCOC(=O)c1c(NS(=O)(=O)Cc2ccccc2)sc2c1CCCC2 | active: 17.1
54 | CCOC(=O)c1ccc(S(=O)(=O)N2CCC(C(=O)O)CC2)cc1 | -0.274
55 | CS(=O)(=O)c1ccccc1-c1nc(-c2cc(C(F)(F)F)cc(C(F)(F)F)c2)no1 | 0.64
56 | COc1cccc(-c2cc(C(=O)Nc3nc4ccccc4s3)c3ccccc3n2)c1 | -0.35
57 | COc1ccc(OC)c(NC(=O)C(=O)NNC(=O)c2cccs2)c1 | 1.69
58 | CCOC(=O)c1c(NC(=O)Cn2nnc3ccccc32)sc2c1CCC(C)C2 (stereo not drawn) | -0.821
59 | CC1=Nc2ccc(C)c3nc(C)cc(c23)N1c1ccc(C)cc1 | -2.06
60 | Cc1cccc2c(C(=O)O)c3c(nc12)CCCCC3 | 0.0547
61 | c1ccc(-c2cc(-c3ccc(N4CCOCC4)cc3)nc3ccccc23)cc1 | 0.0553
62 | CCOc1ccc(NC(=O)Nc2cc(C)ccc2F)cc1 | 0.662
63 | CCNC(=O)COC(=O)COc1ccc(Cl)cc1C | -1.03
64 | CCCCC1S/C(=N/N=C/c2ccco2)NC1=O (stereo not drawn) | -0.238
65 | CSc1nc(C)c(CCOC(=O)c2cccc(Cl)c2)c(=O)[nH]1 | 0.163
66 | Cc1ccc(OCCNC(=O)c2cncc(Br)c2)cc1C | -0.29
67 | CN(c1cccc(NC(=O)COc2ccccc2)c1)S(C)(=O)=O | 0.0649
68 | O=C(O)c1cccc(N2C(=O)CSC2c2c(F)cccc2Cl)c1 (stereo not drawn) | -0.536
69 | COc1ccc(OCCC(=O)OCC(=O)Nc2cccc(Br)c2)cc1 | 0.19

Row | Structure (SMILES) | z-score
70 | COc1ccc(C(=O)Oc2cc(/C=N/NS(=O)(=O)c3ccccc3)ccc2OC)cc1 | -0.732
71 | Cc1ccc(-c2nc3ccccc3s2)cc1S(=O)(=O)N1CCCC1 | 0.359
72 | Cc1ccn(C(=O)c2cc3cc(Cl)ccc3oc2=O)n1 | 0.103
73 | CCn1c(=O)cc(OCC(=O)NCc2ccco2)c2ccccc21 | 0.0612
74 | Cc1c(C(=O)N2CCOCC2)oc2c1C(=O)CC(C)(C)C2 | -0.336
75 | N#CC1(NC(=O)COc2ccc3oc4ccccc4c3c2)CCCCC1 | -0.147
76 | Cc1cc(C)cc(N(C(=O)c2csnn2)C(C(=O)NC(C)(C)C)c2cccs2)c1 (stereo not drawn) | -0.207
77 | Cc1ccccc1Nc1nc(N)nc(COC(=O)c2ccccc2)n1 | -0.226
78 | CCC(CC)C(=O)N1CCN(Cc2ccc3c(c2)OCO3)CC1 | -0.17
79 | Cc1nn(-c2cccc(Cl)c2)c2c1C(c1ccncc1)C(C#N)=C(N)O2 (stereo not drawn) | -0.121
80 | Cc1ccccc1-c1nnn(CC(=O)N2CCN(S(=O)(=O)c3ccc(Cl)cc3)CC2)n1 | -0.031
81 | COc1ccccc1CNC(=O)c1ccc2nc3[nH]c4ccccc4c3nc2c1 | 0.337
82 | COc1c(C)cccc1C(=O)Nc1ccc(CN2CCCCC2)cc1 | 0.088
83 | CC(=O)NCCC(=O)Nc1cccc(S(=O)(=O)N(C)c2ccccc2)c1 | 0.337
84 | CSCCC(NC(=O)c1ccco1)C(=O)OCC(=O)Nc1ncc(Cl)c(C)c1Cl (stereo not drawn) | -0.754
85 | Cc1nc(N2CCN(Cc3ccccc3)CC2)c(C#N)c2c1COC(C)(C)C2 | -0.749
86 | Cc1nn(-c2cc(N3CCNCC3)ccc2[N+](=O)[O-])c(=O)c2ccccc12 | 1.86
87 | Cn1cc([N+](=O)[O-])c(C(=O)Nc2cc(Oc3cccnc3)cc([N+](=O)[O-])c2)n1 | -0.49
88 | COc1cc(NC(=S)NC2CC2)c(OC)cc1Cl | -0.0971
89 | CCOC(=O)c1ccc(NC(=O)c2nccnc2C(=O)O)cc1 | -0.0513
90 | CCC(=O)NC(=S)Nc1cccc(NC(=O)c2ccccc2Cl)c1 | -0.263
91 | O=C(CSc1nc2ccccc2n1S(=O)(=O)c1cccc([N+](=O)[O-])c1)NCc1cccs1 | -0.000584
92 | O=C(Nc1ccon1)c1ccc(Br)o1 | -0.216

Row | Structure (SMILES) | z-score
93 | CCOC1=NC(C(=O)O)c2ccccc2/C(=C(/C)Cl)N1 (stereo not drawn) | 0.561
94 | CC(CCc1ccccc1)NC(=O)/C=C/c1ccc(Cl)cc1 (stereo not drawn) | 0.452
95 | O=C(NCCCO)c1ccc2[nH]c3c(c2c1)CCCC3 | -0.983
96 | O=c1cc(O)nc2n1CCCS2 | 0.177
97 | O=C(CCNC(=O)c1ccco1)NCc1ccccc1 | 0.731
98 | CCN(CC)N=Nc1ccc(C(=O)O)cc1 | 0.0652
99 | O=C(CNCc1ccccc1)Nc1ccccc1-c1ccccc1 | -0.246
100 | CCOc1ccc(S(=O)(=O)N2CCN(Cc3ccccc3)CC2)c2cccnc12 | 0.939
101 | CCOc1cc(C(=O)NCc2ccc(-c3nc4ccccc4o3)cc2)cc(OCC)c1OCC | -0.159
102 | Cc1c(C(=O)N2CCCC2)sc(NC(=O)c2ccco2)c1C#N | -0.347
103 | O=C(CSc1nnc(-c2ccc(Cl)s2)o1)N1CCOCC1 | 0.367
104 | COC(=O)c1cc(Br)c(=O)n(Cc2ccc(OC)c(OC)c2)c1 | 0.364
105 | Cc1ccc(OCC(=O)N2CC3(C)CC2CC(C)(C)C3)cc1 (stereo not drawn) | -0.513
106 | COc1ccc(O)c(-c2c(-c3ccc(Cl)cc3)n[nH]c2C)c1 | -1.4
107 | COc1ccc(/C=C2\SC(=O)N(CCNC(=O)Cc3coc4cc(OC)ccc34)C2=O)cc1 | -0.116
108 | COc1ccc(N2C(=O)c3cccc4cccc(c34)C2=O)nn1 | 0.132
109 | Cc1ccc(S(=O)(=O)Nc2cc(C(F)(F)F)ccc2N2CCOCC2)cc1C | -0.133
110 | CS(=O)(=O)N1CCCC(C(=O)NCCCN2CCN(Cc3ccccc3)CC2)C1 (stereo not drawn) | 0.429
111 | COc1ccc(C(NC(N)=O)c2ccccc2)cc1 (stereo not drawn) | -0.028
112 | CC1(C)CC(=O)C2=C(C1)Nc1ccccc1N1C(=O)c3ccccc3C21 (stereo not drawn) | 0.37
113 | COc1ccc(OC)c(Nc2ccc(C(=O)O)cc2[N+](=O)[O-])c1 | 0.592
